Source: article PMC9574860, “Chemical Toolkit for PARK7: Potent, Selective, and High-Throughput” (Journal of Medicinal Chemistry, 2022)
Screen size: about 7,900 compounds; about 400 (5.1%) showed an effect of 50% or more. Some of the results follow.

biological target: Parkinson's disease protein 7 (PARK7/DJ1) (human, UniProt Q99497); assay: primary screen, percent inhibition; read as competition with a fluorescent probe by fluorescence polarization; higher = more effect of the substance; conditions: 100 µM
Summary of the method: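 Covalent fragments at 100 μM final were incubated 2 h with 0.2 μM PARK7, then 20 nM probe JYQ-107 added for a further 2 h. Fluorescence polarization read at 480/520 nm; relative FP loss versus reference controls gave remaining enzyme activity.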

Chain of Parkinson's disease protein 7 (PARK7/DJ1) (Q99497 whole entry, looked up, the tested form may be a part): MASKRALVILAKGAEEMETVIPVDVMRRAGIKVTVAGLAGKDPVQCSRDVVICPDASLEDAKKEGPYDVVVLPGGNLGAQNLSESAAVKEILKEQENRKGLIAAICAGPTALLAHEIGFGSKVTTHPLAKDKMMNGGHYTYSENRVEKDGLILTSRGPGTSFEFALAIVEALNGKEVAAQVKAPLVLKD

Row | Compound | Inhibition % [%]
1 | C=CC(=O)NCC(=O)Nc1cn[nH]c1 | 30.4
2 | C=CC(=O)N1CCn2nc(C)nc2C1 | 12.4
3 | CS(=O)(=O)N1CC2OC2C1 (stereo not shown) | 12.1
4 | O=C(CCl)N1CCC(OCc2ccccc2)CC1 | 12.9
5 | COC(=O)Cc1ccccc1B1OC(C)(C)C(C)(C)O1 | 4.19
6 | O=C(Oc1cccc(-c2nnco2)c1)N1CCOCC1 | 6.58
7 | C=CC(=O)NCc1ncc(C(F)(F)F)cn1 | 11.5
8 | C=CC(=O)NC1CCN(CC2CCCO2)CC1 (stereo not shown) | 1.78
9 | O=C(O)c1ccc(S(=O)(=O)F)c(Cl)c1 | 94.7
10 | C=CC(=O)NC(c1cccnc1)c1cc2ccccc2o1 (stereo not shown) | 9
11 | C=CC(=O)N1CCOC(Cn2ccnn2)C1 (stereo not shown) | 6.45
12 | Cc1cc(C)n(S(=O)(=O)c2cc(Cl)ccc2Cl)n1 | 6.42
13 | O=C(O)CC1OCCCO1 | -4.03
14 | C=CC(=O)N1CCC(c2cc(C(=O)O)on2)CC1 | 7.61
15 | Cc1ccc(C2CO2)cc1 (stereo not shown) | 6.97
16 | CC(N)C1CCCN(C(=O)C=Cc2ccccn2)C1 (stereo not shown) | 6.48
17 | CC1CCC(N(C)C(=O)Cn2cnc(C#N)n2)CC1 (stereo not shown) | 5.54
18 | C=CC(=O)NC(C)(C)C1CCOCC1 | 5.49
19 | O=C(CCl)NC1CCN(C(=O)CCc2ccccc2)CC1 | 11.9
20 | COc1cc(C)c(C(C)C)cc1S(=O)(=O)n1ccc(C)n1 | 4.05
21 | COc1ccc(CNC(=O)CCl)cc1OC | 6.67

Row | Compound | Inhibition % [%]
22 | C=CC(=O)N1CCC(C#N)(c2ccccn2)CC1 | 12.6
23 | O=C(NCC(CO)c1ccccc1)c1cccnc1S (stereo not shown) | 9.26
24 | C=CC(=O)NCC1COc2ccccc2C1 (stereo not shown) | 6.04
25 | N#CC(C(=O)CCl)c1nc(-c2ccccc2)cs1 (stereo not shown) | 2.49
26 | COc1ccc(-n2c(C)c(C)c(C#N)c2NC(=O)CCl)cc1 | 8.76
27 | C#Cc1ccc(S(=O)(=O)F)cc1 | 14.4
28 | C=CC(=O)NCc1ncc(C)s1 | 7.52
29 | O=C(CCl)Nc1c(Cl)cc(Cl)cc1Cl | 6.3
30 | N#Cc1ncn(CC(=O)c2ccc[nH]2)n1 | 9.25
31 | CC1CC(N2CCc3c(nc(C4CC4)n3C)C2)C(=O)O1 (stereo not shown) | 5.37
32 | Cc1cc(C#N)nc(Cl)n1 | 4.76
33 | COc1ccc(C2CCCN2C(=O)CCl)cc1OC (stereo not shown) | 9.71
34 | C=CC(=O)N1CCC(C)(c2ccccc2)C1 (stereo not shown) | 8.41
35 | C=CC(=O)NCC1Cc2ccccc2N(C)C1 (stereo not shown) | 13.5
36 | N#CC(=Cc1cccnc1)C(=O)NCCc1ccccc1 | 0.295
37 | O=C(CCl)NNC(=O)c1ccccc1 | -3.2
38 | Cn1cnc2c(S)ncnc21 | 9.16
39 | C=CC(=O)N1CC(Cc2ccccc2C)C1 | 8.3
40 | C=CC(=O)NCc1coc(-c2ccccc2)n1 | -4.69
41 | CC(C1CC1)N(C(=O)CCl)C1CC1 (stereo not shown) | 31.4
42 | Cl.ClCCN1CCOCC1 | 6.9

Row | Compound | Inhibition % [%]
43 | Cc1ccc(S)nc1 | 7.53
44 | Cc1cccc(NC(=O)NC(=O)CCl)c1C | -3
45 | CC(C)c1csc(C2CCCN(C3CCOC3=O)C2)n1 (stereo not shown) | 3.81
46 | Cc1csc(NS(=O)(=O)c2cccc(S(=O)(=O)F)c2)n1 | 83.9
47 | CC1(C)C(=O)NC1c1nccn1CC1CC1 (stereo not shown) | 17.8
48 | CC1(C)OB(C=C(c2ccccc2)C(F)(F)F)OC1(C)C | 3.39
49 | N#CC(=Cc1ccc2c(c1)OCCO2)c1ccccn1 | 14.7
50 | Cc1cc(C)n2nc(SC3CCOC3=O)nc2n1 (stereo not shown) | 11.1
51 | C=CC(=O)Nc1ccnn1CC1CC1 | 8.8
52 | CC1CC(C)CN(C(=O)CCl)C1 (stereo not shown) | 29
53 | Cc1cc(S(=O)(=O)F)ccc1C(=O)O | 85.1
54 | Cl.N#Cc1nc2c(s1)CNCC2 | 26
55 | O=S(=O)(F)c1ncc(Br)cn1 | 5.61
56 | Cn1nc(C2CCCC2)cc1NC(=O)c1c[nH]c(C#N)c1 | 36.5
57 | COc1ccc(CNC(=O)n2nc(C)cc2C)cc1 | 42.8
58 | C=CC(=O)NCCN1CCCS1(=O)=O | 16.1
59 | C=CC(=O)NC1CC(C)OC1C (stereo not shown) | 4.78
60 | O=C(CCl)N1CCCC1c1cccs1 (stereo not shown) | 15.8
61 | Cc1cc2ncn(CCC3OCCO3)c2cc1C | 5.56
62 | O=C(CCl)Nc1ccc(I)cc1 | 93.2
63 | C=CC(=O)N1CCCC1c1cccc(C)c1 (stereo not shown) | 3.98

Row | Compound | Inhibition % [%]
64 | CN(C)S(=O)(=O)c1ccc(NC(=O)CCCl)cc1 | 7.94
65 | Cc1[nH]c2ccccc2c1C=C(C#N)C(N)=O | 29
66 | CC(=O)N1CCN(C(=O)C(C#N)=Cc2ccccc2)CC1 | 10.8
67 | CC1(C)OB(c2ccc(C(F)(F)F)o2)OC1(C)C | -0.214
68 | COc1ccc(C)cc1Cn1cnc(C#N)n1 | 5.73
69 | O=C(Nc1ccccc1)c1cccnc1S | 3.52
70 | O=C1CCc2cc(C(=O)CCl)c(F)cc2N1 | 1.18
71 | N#Cc1cc(C(=O)O)ccn1 | 4.99
72 | CC(C)(C)Oc1ccc(C#N)nc1 | 8.71
73 | O=C(CCCl)N1CCc2sccc2C1 | 33.2
74 | COc1ccc(C=O)c(O)c1 | 8.29
75 | C=CC(=O)N1CCN(C(=O)Cc2c(C)noc2C)CC1 | 7.05
76 | N#CC(=Cc1ccc(O)c(O)c1)C(=O)N1CCCC1 | 28.9
77 | Cc1c(NC(=O)CCl)c(=O)n(-c2ccccc2)n1C | 18.9
78 | C=CC(=O)Nc1cnn(C(C)C)c1C1CC1 | 10.5
79 | c1ccc(C2OCC3(CCC4OC4C3)CO2)cc1 (stereo not shown) | 8.47
80 | Cc1cc(N2CCC2=O)n(C)n1 | 11.3
81 | OB(O)C1=CCN(Cc2cc3n(n2)CCC3)CC1 | 33.1
82 | C=CC(=O)N1CCCC1c1cncc(C)c1 (stereo not shown) | 17.8
